Assay results: a collection of fitness landscapes (doi:10.1016/j.celrep.2020.107928)
Over roughly 81,000 sequences, “one-hybrid fitness for binding NBS DNA” has its median near -0.1; the highest 2% begin near 0.36. The list shows a part of the results.

B1: Caulobacter ParB omega fusion; a variant is named by its letters at X, in order, B8GW30 (parent)
chain: MESVVVGEPGMSEGRRGLGRGLSALLGEVDAAPAQAPGEQLGGSREAPIEILQRNPDQPRRTFREEDLEDLSNSIREKGVLQPILVRPSPDTAGEYQIVAGERAWRAAQRAGLKTVPIMVRELDDLAVLEIGIIENVQRADLNVLEEALSYKVLMEKFERTQENIAQTIGKSXSHVANXMRLLXLPDEVQSYLVSGELTAXHARAIAAAADPVALAKQIIEGGLSVRETEALARKAPNLSAGKSKGGRPPRVKDTDTQALESDLSSVLGLDVSIDHRGSTGTLTITYATLEQLDDLCNRLTRGI

Variants of: B1
Test: one-hybrid fitness for binding NBS DNA (the Noc-binding site; scaled: cognate 1, non-cognate 0); higher = stronger binding
Conditions: with NBS DNA site
Summary of the method: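 On M9-minus-histidine containing 0.1 mM IPTG and 5 mM 3-AT, E. coli USO cells with a HIS3 reporter, site 19 bp from the promoter, grew 48 hours at 37°C to select Caulobacter ParB libraries randomised at four specificity codons. Plasmids from before and after were Illumina-sequenced, with three replicate libraries pooled and variants under 10 reads left out. Fitness is the log change in variant-to-wild-type read ratio, rescaled against cognate and non-cognate.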

one-hybrid fitness for binding NBS DNA, 0.411:
RCFS

one-hybrid fitness for binding NBS DNA, 0.458:
QSYR

one-hybrid fitness for binding NBS DNA, 0.354:
RYKA

one-hybrid fitness for binding NBS DNA, 0.756:
RRSR

one-hybrid fitness for binding NBS DNA, 0.499:
RIKS

one-hybrid fitness for binding NBS DNA, 0.276:
QSPT

one-hybrid fitness for binding NBS DNA, ≤ 0.2:
QYES
NQMG
RVCP
YQMY
APQI
PQHS
PWPA
YLST
FCQR
KLMV
MRML
RGKA
MIRR
GTQP
HKKH
NQRV
SQHF
VVTC
AYVM
PVAH
CKAL
CCVR
SLPW
NHLI
LVAS
THFT
APLT
RDRN
IYNR
VPMN
SARL
NMHG
HRYM
WQAG
RCKP
KDTY
TPGS
YLFC
MLTM
LWKC
TYDK
QGPE
MNAG
MDDG
WGQT
PSYS
RPHV
SALL
WVYD
ARIY
RNIA
TSDT
SMSS
RYYE
MYSS
WPYA
PSKD
RARQ
ADQE
WLVY
GGQH
HWGT
ESYG
YNMN
ESND
SFTT
IKPT
ASMG
TMLC
RNDP
NENT
VSCL
FFIR
QVNE
DVKC
DLSH
NAPR
NPCS
EAAT
RGYD
CRTH
RGWE
KLEV
WTFG
TEKS
WTTW
EPSE
GVTC
LQNV
YEPR
NPGV
AWDM
ANNR
PDKV
DKTS
FMKG
LSRK
TKDG
GQRF
PVSW
KAAP
LPIW
EHFC
HFAR
PLFL
HFCA
LRCS
CWTM
ECNS
WRRL
RFWK
YELK
SWMT
VAVT
EPRV
IKNF
SGCW
PNVS
HWHY
TYCR
QAVK
HRRA
FCHC
IKNK
CAWK
MKRG
HAPY
TLDQ
YMRR
NDEK
NHPF
PTEW
PKES
PLMD
SHSR
QYYM
TDTY
RNPM
YFQS
NSRW
LKMN
WQSS
GLCD
KKDR
GNML
TCRQ
GSDC
CMHC
RMWF
HCTG
RIGL
LGLC
ETPE
EWPL
GTSC
SQAA
EWGG
KKPS
SCPF
APQA
VHNL
CHMS
PARD
HSIK
VLSN
TRRE
RFGD
PFFS
RQAW
LRWG
PIIS
RSIP
LMAM
AQEA
PAYL
CDTQ
YNSP
FPPN
RSYC
CRTV
QNDA
GWMR
IRAI
FARL
SDST
RISC
RFGG
NMKE
SRAD
